Test results: US9901592B2 (priority 2008, dated 2018)
Marks after values point to notes of the source that are not given here.

System: S. pneumoniae
Assay: MBC determination (CLSI), MBC/MIC ratio

Structure (SMILES)	No. of strains with MBC/MIC value of: 1	No. of strains with MBC/MIC value of: 2	No. of strains with MBC/MIC value of: 4	No. of strains with MBC/MIC value of: 8	No. of strains with MBC/MIC value of: 16	No. of strains with MBC/MIC value of: ≧32
CC[C@H]1OC(=O)[C@H](C)[C@@H](O[C@H]2C[C@@](C)(OC)[C@@H](O)[C@H](C)O2)[C@H](C)[C@@H](O[C@@H]2O[C@H](C)C[C@H](N(C)C)[C@H]2O)[C@](C)(OC)C[C@@H](C)C(=O)[C@H](C)[C@@H](O)[C@]1(C)O [CLR, clarithromycin]	2	3	1	0	0	–
CC[C@H]1OC(=O)[C@H](C)C(=O)[C@H](C)[C@@H](O[C@@H]2O[C@H](C)C[C@H](N(C)C)[C@H]2O)[C@](C)(OC)C[C@@H](C)C(=O)[C@H](C)[C@H]2N(CCCCn3cnc(-c4cccnc4)c3)C(=O)O[C@]12C [TEL, telithromycin]	2	6^a	0	0	0	2
